# Laboratory results: patent US12433952B2, “Antibody-drug conjugates targeting folate receptor alpha and methods of use” (ZYMEWORKS BC INC., priority 2022, dated 2025)
# B1: v30384-MC-GGFG-Compound 140 (conjugate)
# heavy 1: EVQLLESGGGLVQPGGSLRLSCAVSGFSLSSYGVSWVRQAPGKGLEWIGAVNSGGSAYYADSVKGRSTISRDNSKNTVYLQMNSLRAEDTAVYYCARSGSGYPMDYLAIWGQGTLVTVSSASTKGPSVFPLAPSSKSTSGGTAALGCLVKDYFPEPVTVSWNSGALTSGVHTFPAVLQSSGLYSLSSVVTVPSSSLGTQTYICNVNHKPSNTKVDKKVEPKSCDKTHTCPPCPAPELLGGPSVFLFPPKPKDTLMISRTPEVTCVVVDVSHEDPEVKFNWYVDGVEVHNAKTKPREEQYNSTYRVVSVLTVLHQDWLNGKEYKCKVSNKALPAPIEKTISKAKGQPREPQVYVYPPSRDELTKNQVSLTCLVKGFYPSDIAVEWESNGQPENNYKTTPPVLDSDGSFALVSKLTVDKSRWQQGNVFSCSVMHEALHNHYTQKSLSLSPG
# heavy 2: EVQLLESGGGLVQPGGSLRLSCAVSGFSLSSYGVSWVRQAPGKGLEWIGAVNSGGSAYYADSVKGRSTISRDNSKNTVYLQMNSLRAEDTAVYYCARSGSGYPMDYLAIWGQGTLVTVSSASTKGPSVFPLAPSSKSTSGGTAALGCLVKDYFPEPVTVSWNSGALTSGVHTFPAVLQSSGLYSLSSVVTVPSSSLGTQTYICNVNHKPSNTKVDKKV[human IgG1 Fc with changes not written out]
# light: DYQMTQSPSSVSASVGDRVTITCRASQSIGDWLAWYQQKPGKAPKLLIYEASTLASGVPSRFSGSGSGTDFTLTISSVQPEDAATYYCQQGYGRSNVDNIFGGGTKVEVKRTVAAPSVFIFPPSDEQLKSGTASVVCLLNNFYPREAKVQWKVDNALQSGNSQESVTEQDSKDSTYSLSSTLTLSKADYEKHKVYACEVTHQGLSSPVTKSFNRGEC
# B2: v30384-MT-GGFG-Compound 148 (conjugate)
# heavy 1: EVQLLESGGGLVQPGGSLRLSCAVSGFSLSSYGVSWVRQAPGKGLEWIGAVNSGGSAYYADSVKGRSTISRDNSKNTVYLQMNSLRAEDTAVYYCARSGSGYPMDYLAIWGQGTLVTVSSASTKGPSVFPLAPSSKSTSGGTAALGCLVKDYFPEPVTVSWNSGALTSGVHTFPAVLQSSGLYSLSSVVTVPSSSLGTQTYICNVNHKPSNTKVDKKVEPKSCDKTHTCPPCPAPELLGGPSVFLFPPKPKDTLMISRTPEVTCVVVDVSHEDPEVKFNWYVDGVEVHNAKTKPREEQYNSTYRVVSVLTVLHQDWLNGKEYKCKVSNKALPAPIEKTISKAKGQPREPQVYVYPPSRDELTKNQVSLTCLVKGFYPSDIAVEWESNGQPENNYKTTPPVLDSDGSFALVSKLTVDKSRWQQGNVFSCSVMHEALHNHYTQKSLSLSPG
# heavy 2: EVQLLESGGGLVQPGGSLRLSCAVSGFSLSSYGVSWVRQAPGKGLEWIGAVNSGGSAYYADSVKGRSTISRDNSKNTVYLQMNSLRAEDTAVYYCARSGSGYPMDYLAIWGQGTLVTVSSASTKGPSVFPLAPSSKSTSGGTAALGCLVKDYFPEPVTVSWNSGALTSGVHTFPAVLQSSGLYSLSSVVTVPSSSLGTQTYICNVNHKPSNTKVDKKV[human IgG1 Fc with changes not written out]
# light: DYQMTQSPSSVSASVGDRVTITCRASQSIGDWLAWYQQKPGKAPKLLIYEASTLASGVPSRFSGSGSGTDFTLTISSVQPEDAATYYCQQGYGRSNVDNIFGGGTKVEVKRTVAAPSVFIFPPSDEQLKSGTASVVCLLNNFYPREAKVQWKVDNALQSGNSQESVTEQDSKDSTYSLSSTLTLSKADYEKHKVYACEVTHQGLSSPVTKSFNRGEC
# Experiments:
# NCI-H2110 CDX xenograft = assay: In vivo anti-tumor activity, NCI-H2110 CDX model; set-up: species or system mouse; details: 6 mg/kg single IV dose, DAR 8
# Procedure: The in vivo anti-tumor activities of humanized variant v30384 conjugated to various drug-linkers were assessed in a numberofxenograft models as describedbelow.
# All ADCs were DAR 8. For each xenograft study, tumor volume and body weight of the animals were measured twice weekly.
# For the NCI-H21 10 CDX model study, tumor cell suspensions (1×10^7 cells in 0.1 ml 50% Matrigel®) were implanted subcutaneously into CB. 17 SCID mice. When mean tumor volume reached ˜140 mm^3 the animals were randomly assigned to groups (n=6 per group) and treated with a single IV dose of test article on study day 0 as shown in Table 28.1.
# [1] = Murine tolerability study (Balb/c); format: in vivo, mouse; details: for treatment related microscopic findings: 60 and 200 mg/kg; for treatment-related macroscopic changes: 60 or 200 mg/kg; for tolerability (body weight, mortality): single intraperitoneal doses of 60 and 200 mg/kg, Balb/c mice
# Procedure: ADCs comprising humanized variant v30384 conjugated to various drug-linkers as shown in Table 30.1 were assessed for tolerability in mice at single doses of 60 and 200 mg/kg as described below.
# Test articles were administered to mice (Balb/c, female, 6-8 weeks old, -20g) via 20 ml/kg intraperitoneal injections at 60 and 200 mg/kg. From each dose group, 3 mice were subject to planned observation for 3 weeks post-dose. An additional 3 mice were subject to planned observation for 1 week post-dose, followed by termination and examination of formalin-fixed, paraffin-embedded organs. Mice were euthanized if body weight fell by ≥20% from pre-dose levels. Serum collection was planned for all mice at 24 hr and 7 day post-dose for pharmacokinetic analysis.
# [2] = Pharmacokinetics of ADCs in NCI-H2110 tumor-bearing mice (total IgG ELISA); format: in vivo, mouse; details: NCI-H2110 model, 6 mg/kg single IV dose, total IgG in serum
# Procedure: Serum was collected from the xenograft studies described in Example 28, as noted, and analyzed for the pharmacokinetics (PK) of the ADCs as described below.
# Absorbance at 450 nm was measured using a Synergy™ H1 Hybrid Multi-Mode Plate Reader (BioTek Instruments, Winooski, VT). Pharmacokinetics parameters were calculated from non-compartmental analysis using Phoenix WinNonlin™ software (Certara, Princeton, NJ).
# [3] = tested on: EBC-1 (lung carcinoma; FRα-negative) spheroids; assay: In vitro cytotoxicity of ADCs, 3D spheroids (CellTiter-Glo 3D); format: cell-based; details: EBC-1 (FRα-negative) spheroids, 6-day treatment, DAR 8
# Procedure: The 3D cytotoxicity capabilities of the humanized variant v30384 conjugated to various drug-linkers as shown in Table 27.1 were assessed in a panel of FRα-expressing cell line spheroids as described below. Spheroids provide a three-dimensional organization of cells with layers of distinct cell populations and the formation of different gradients from the outer to the inner regions. Cell signaling is more complex in spheroids than in two-dimensional cell cultures. As a result of these features, spheroids have the potential to recapitulate drug resistance and metabolic adaptation.
# Cell lines used were IGROV-1 (ovarian adenocarcinoma), T-47D (breast carcinoma), OVCAR-3 (ovarian adenocarcinoma), HEC-1-A (uterine adenocarcinoma) and EBC-1 (lung carcinoma; FRα-negative).
# Briefly, cells were seeded in Ultra-Low Attachment 384-well plates, centrifuged and incubated under standard culturing conditions to allow for spheroid formation and growth. Monoculture cell line spheroids were then treated with a titration of test article, generated in cell growth medium. Spheroids were incubated for 6 days under standard culturing conditions. After incubation, CellTiter-Glo® 3D reagent (Promega Corporation, Madison, WI) was spiked in all wells. Plates were incubated in the dark at room temperature for 1 hour and luminescence was quantified using a BioTek Cytation 5 Cell Imaging Multi-Mode Reader (Agilent Technologies, Inc., Santa Clara, CA). Based on blank wells (no test article added), percent cytotoxicity values were calculated and plotted against test article concentration using GraphPad Prism 9 software (GraphPad Software, San Diego, CA).
# [4] = tested on: FRα-negative MDA-MB-468 cells co-cultured with FRα-positive JEG-3; assay: Bystander activity of ADCs (mono-culture vs co-culture, flow cytometry); format: cell-based; details: mono-culture viability compared with co-culture viability, 2 nM ADC, 4 days
# Procedure: The ability of the humanized variant v30384 conjugated to various drug-linkers to exert a bystander killing effect on cancer cells was assessed according to the method described below. Bystander killing most commonly occurs after target-specific uptake of an ADC into an antigen-positive cell. Trafficking and degradation of the ADC results in release of active catabolite free drug, which then crosses the cell membrane of nearby cells to elicit cell death.
# FRα-positive JEG-3 and FRα-negative MDA-MB-468 cells were seeded either as mono-cultures or co-cultures in a 48-well plate at 20,000 cells and 10,000 cells, respectively, in 100 μL assay media (Minimum Essential Media supplemented with 10% Fetal Bovine Serum (both from Thermo Fisher Scientific, Waltham, MA)). ADCs were diluted to 4 nM in assay media and 100 μL was added to the cell-containing plates (2 nM final ADC concentration). Cells were incubated with ADCs for 4 days under standard culturing conditions (37° C./5% C02). Following incubation, cells were dissociated, washed, and stained using a viability dye, YO—PRO®-1 (ThermoFisher Scientific, Waltham, MA), and an anti-FRα antibody, mirvetuximab (v17716), conjugated to Alexa Fluor®647, for 20 minutes at 4° C. After incubation, cells were washed in FACS buffer (phosphate buffered saline pH 7.4 (ThermoFisher Scientific, Waltham, MA) supplemented with 2% FBS), resuspended in 70 μL FACS buffer per well, and 35 μL per well were analyzed on a BD LSRFortessa™ Cell Analyzer (BD Biosciences, Franklin Lake, NJ). Dead cells were excluded by gating on YO—PRO®-1 staining. The number of JEG-3 and MDA-MB-468 cells were determined by the number of events in the Alexa Fluor®647 positive (FRα-positive) and Alexa Fluor®647 negative (FRα-negative) gates, respectively. Percent viability was calculated as the number of cells in treatment condition divided by the number of cells in the no-treatment condition.
# [5] = tested on: MDA-MB-468 (breast adenocarcinoma; FRα-negative); assay: In vitro cytotoxicity of ADCs, 2D monolayer (CellTiter-Glo); format: cell-based; details: 4 days, DAR 8, FRα-negative
# Procedure: The cell growth inhibition (cytotoxicity) capabilities of the humanized variant v30384 conjugated to various drug-linkers were assessed in a panel of FRα-expressing cell lines as described below. Cell lines used were KB—HeLa (endocervical carcinoma), JEG-3 (choriocarcinoma), T-47D (breast carcinoma) and MDA-MB-468 (breast adenocarcinoma; FRα-negative).
# Briefly, cells were seeded in 384-well plates and treated with a titration of test article, generated in cell growth medium. Cells were incubated for 4 days under standard culturing conditions. After incubation, CellTiter-Glo® reagent (Promega Corporation, Madison, WI) was spiked in all wells and luminescence corresponding to ATP present in each well was measured using a Synergy™ H1 plate reader (BioTek Instruments, Winooski, VT). Based on blank wells (no test article added), % cytotoxicity values were calculated and plotted against test article concentration using GraphPad Prism 9 software (GraphPad Software, San Diego, CA).
Molecule,effect on tumor growth (NCI-H2110 CDX xenograft),treatment related microscopic findings [1],treatment-related macroscopic changes [1],"tolerability (body weight, mortality) [1]",Half-life [2] [h],EC50 [3] [µM],% Bystander Activity [4] [%],EC50 [5] [nM]
B1,stasis of tumor growth for approximately 2 weeks post-dose,"present in intestine, bone marrow, thymus, spleen and mesenteric lymph node",Macroscopic changes considered related to the ADCs were present in preterminal animals,"rapid body weight loss, mortality or sacrifice due to moribund condition between 3-6 days post dose",64.8,0.0076,–,–
B2,stasis of tumor growth for approximately 2 weeks post-dose,"present in intestine, bone marrow, thymus, spleen and mesenteric lymph node",Macroscopic changes considered related to the ADCs were present in preterminal animals,"rapid body weight loss, mortality or sacrifice due to moribund condition between 3-6 days post dose",87.4,–,51.7,21.2
